{"source": "the supplement of paper PMC3656093", "note": "“And” between values parts separate entries of the source, which are not always exact repeats. Equal values may be shown once. ± gives the standard deviation of the averaged measurements. The full ranking holds about 1,900 compounds; the median of “CD40L-induced NF-kB luciferase activity, plate-corrected, relative to DMSO (0) and IKK inhibitor VII (-100) controls” is about 0.032, and the lowest 2% start at about -26. The list shows a part of the results.", "data": [{"system": "BL2-NFkB-Luc", "experiment": "CD40L-induced NF-kB luciferase activity, plate-corrected, relative to DMSO (0) and IKK inhibitor VII (-100) controls (% normalized activity); higher = more NF-kB reporter activity (less inhibition)", "settings": "9.4 µM; stimulus: tCD40L 64 ng/ml; 4.5 h", "procedure": "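BL2 B cells with a stable NF-kB response-element luciferase reporter (BL2-NFkB-Luc), 384-well. Cells were pre-incubated with compound at 9.4 uM for 1 h at 37 C, then stimulated with 64 ng/ml trimerized CD40L for 4.5 h; luciferase was read with Steady-Glo. Signal was normalised per plate in Genedata (median DMSO neutral control = 0, median IKK inhibitor VII at 50 uM = -100) with Assay Median plate-pattern correction; duplicate plates.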", "values": [{"smiles": "COc1ccc(-c2noc(CCc3ccccc3)n2)cc1", "CD40L-induced NF-kB luciferase activity": "58.9 ± 6.4"}, {"smiles": "COc1cc2c(cc1NCc1ccc3c(c1)OCO3)oc1ccccc12", "CD40L-induced NF-kB luciferase activity": "44.5 ± 8.7"}, {"smiles": "C=C(C)[C@@H]1CC=C(CN2CCC(N3CCC(C(=O)N4CCCC4)CC3)CC2)CC1", "CD40L-induced NF-kB luciferase activity": "-5.18 ± 1.8"}, {"smiles": "O=C(CCNNC(=O)c1ccncc1)NCc1ccccc1", "CD40L-induced NF-kB luciferase activity": "-24.8 ± 30"}, {"smiles": "CCOC(=O)n1c(=O)oc2ccccc21", "CD40L-induced NF-kB luciferase activity": "-1.93 ± 0.16"}, {"smiles": "CCCn1c(=O)c2[nH]c(C3CCCC3)nc2n(CCC)c1=O", "CD40L-induced NF-kB luciferase activity": "-11.9 ± 7"}, {"smiles": "Cc1nc2ccccn2c(=O)c1CCN1CCC(C(=O)c2ccc(F)cc2)CC1", "CD40L-induced NF-kB luciferase activity": "-14.7 ± 8.9"}, {"smiles": "NC(=O)c1cnccn1", "CD40L-induced NF-kB luciferase activity": "-7.55 ± 1"}, {"smiles": "O=c1cc(-c2ccc3c(c2)OCCO3)oc2ccc(Cl)cc12", "CD40L-induced NF-kB luciferase activity": "75.9 ± 14"}, {"smiles": "COc1cc(C(=O)Nc2cccc(-c3nnc(-c4ccco4)o3)c2)ccc1OC(C)=O", "CD40L-induced NF-kB luciferase activity": "15.1 ± 1.5"}, {"smiles": "CCNC(=S)Nc1ccc(OC(F)(F)F)cc1", "CD40L-induced NF-kB luciferase activity": "3.97 ± 0.15"}, {"smiles": "NC(N)=NN=Cc1cccc(Cl)c1Cl", "CD40L-induced NF-kB luciferase activity": "0.0493 ± 1.3"}, {"smiles": "O=C(NCc1ccc(N2CCCC2=O)cc1)c1ccc(F)cc1", "CD40L-induced NF-kB luciferase activity": "2.23 ± 0.89"}, {"smiles": "CCCCCCCC(=O)OCC(O)CO", "note": "(stereo not given)", "CD40L-induced NF-kB luciferase activity": "-1.11 ± 1.9"}, {"smiles": "CC(=O)O[C@H]1CC[C@H]2[C@@H]3CCc4cc(O)ccc4[C@H]3CC[C@]12C", "CD40L-induced NF-kB luciferase activity": "-3.39 ± 3.8"}, {"smiles": "OC12CCCCC1C(c1ccc3c(c1)OCO3)N(Cc1cccc(F)c1)CC2", "note": "(stereo not given)", "CD40L-induced NF-kB luciferase activity": "3.97 ± 0.1"}, {"smiles": "CC12CCC(C(=O)NNc3ccccc3)(C(=O)C1=O)C2(C)C", "note": "(stereo not given)", "CD40L-induced NF-kB luciferase activity": "0.924 ± 0.68"}, {"smiles": "O=c1n(CCCN2CCN(c3cccc(Cl)c3)CC2)nc2ccccn12", "CD40L-induced NF-kB luciferase activity": "4.1 ± 3.1"}, {"smiles": "CC(=O)NCCCC(=O)NC(CCC(=O)OCc1ccccc1)C(=O)OCc1ccccc1", "note": "(stereo not given)", "CD40L-induced NF-kB luciferase activity": "0.267 ± 6.9"}, {"smiles": "CC1(C)S[C@@H]2[C@H](NC(=O)[C@H](N)c3ccccc3)C(=O)N2[C@H]1C(=O)O", "CD40L-induced NF-kB luciferase activity": "-3.02 and -6.95"}, {"smiles": "C[C@@H]1C[C@H](Nc2ccccc2)c2ccccc2N1C(=O)c1cccnc1", "CD40L-induced NF-kB luciferase activity": "-8.09 ± 4.7"}, {"smiles": "CCN(CC)c1ccc(C2=NNC(=O)CC2C)cc1[N+](=O)[O-]", "note": "(stereo not given)", "CD40L-induced NF-kB luciferase activity": "2.41 ± 5"}, {"smiles": "COc1ccc2cc([C@H](C)C(=O)O)ccc2c1", "CD40L-induced NF-kB luciferase activity": "5.64 ± 2.2"}, {"smiles": "C/C=C(/C(=C/C)c1ccc(O)cc1)c1ccc(O)cc1", "CD40L-induced NF-kB luciferase activity": "0.512 ± 0.3"}, {"smiles": "Cc1ncc([N+](=O)[O-])n1CC(C)O", "note": "(stereo not given)", "CD40L-induced NF-kB luciferase activity": "-14.5 ± 13"}, {"smiles": "COc1ccc(-c2cc3cc(OC)c(OC)cc3c(C)n2)cc1", "CD40L-induced NF-kB luciferase activity": "29.9 ± 5.4"}, {"smiles": "O=C(Nc1ccc(Oc2c(F)c(F)c(F)c(F)c2F)cc1)OC1CCN2Cc3ccccc3N=C12", "note": "(stereo not given)", "CD40L-induced NF-kB luciferase activity": "-15.2 ± 2.6"}, {"smiles": "CCOc1ccc(C(=O)NCC2(c3ccccc3)CCOCC2)cc1", "CD40L-induced NF-kB luciferase activity": "2.68 ± 0.27"}, {"smiles": "CCOC(=O)C1CCCN(Cc2nc(Cc3cccc(F)c3)no2)C1", "note": "(stereo not given)", "CD40L-induced NF-kB luciferase activity": "-0.168 ± 10"}, {"smiles": "COc1ccc(-c2[nH]ncc2CN(CCO)Cc2cccs2)c(F)c1", "CD40L-induced NF-kB luciferase activity": "-8.47 ± 4.1"}, {"smiles": "N#C/C(=C\\c1ccc(O)c(O)c1)C(=O)NCCCc1ccccc1", "CD40L-induced NF-kB luciferase activity": "-21.1 ± 0.37"}, {"smiles": "O=P(c1ccccc1)(c1ccccc1)c1nc(-c2ccc(Cl)cc2)oc1N1CCOCC1", "CD40L-induced NF-kB luciferase activity": "-1.72 ± 0.6"}, {"smiles": "C/C(NC(=O)c1cccs1)=C1\\C(=O)C[C@@H]2[C@H]1C2(C)C", "CD40L-induced NF-kB luciferase activity": "34.6 ± 1.7"}, {"smiles": "CCNCCC(CCC(C)C)c1ccc2c(c1)OCO2", "note": "(stereo not given)", "CD40L-induced NF-kB luciferase activity": "0.732 ± 3.2"}, {"smiles": "O=C(O)c1ccccc1O", "CD40L-induced NF-kB luciferase activity": "-11.6 ± 13"}, {"smiles": "CN1CCCN(C(c2ccccc2)c2ccc(Cl)cc2)CC1", "note": "(stereo not given)", "CD40L-induced NF-kB luciferase activity": "4.06 ± 4.2"}, {"smiles": "Nc1ccc(N)c(C(=O)O)c1", "CD40L-induced NF-kB luciferase activity": "3.1 ± 4.4"}, {"smiles": "CC(C)NC(=O)C1(c2ccccc2)CCOCC1", "CD40L-induced NF-kB luciferase activity": "2.39 ± 4.5"}, {"smiles": "CC(C)OC(=O)C(C)(C)Oc1ccc(C(=O)c2ccc(Cl)cc2)cc1", "CD40L-induced NF-kB luciferase activity": "2.91 ± 1.5"}, {"smiles": "COC(=O)C1[C@H]2C(=O)N(Cc3cccs3)C[C@]23C=C[C@H]1O3", "note": "(stereo not given in full)", "CD40L-induced NF-kB luciferase activity": "-7.63 ± 0.63"}, {"smiles": "COc1cc(C2C(C(C)=O)=C(O)C(=O)N2c2ccc(C)cc2)ccc1O", "note": "(stereo not given)", "CD40L-induced NF-kB luciferase activity": "-9.3 ± 24"}, {"smiles": "O=C(Nc1ccccc1)OCC1CCCN2CCCCC12", "note": "(stereo not given)", "CD40L-induced NF-kB luciferase activity": "-0.838 ± 2.4"}, {"smiles": "COc1ccc2cc(-c3nc4ccccc4n3C)c(=O)oc2c1", "CD40L-induced NF-kB luciferase activity": "59.7 ± 7.4"}, {"smiles": "CC1(C)NC(C(=O)O)Cc2c1[nH]c1ccccc21", "note": "(stereo not given)", "CD40L-induced NF-kB luciferase activity": "-5.47 ± 1.3"}, {"smiles": "COC(=O)CCC(=O)CN", "CD40L-induced NF-kB luciferase activity": "-0.0616 ± 1.1"}, {"smiles": "CC(C)=CCC/C(C)=C/CCC(C)=NO", "CD40L-induced NF-kB luciferase activity": "2.33 ± 4.2"}, {"smiles": "CCc1cc(=O)oc2cc(C)c(CN3CCCC(C)C3)c(O)c12", "note": "(stereo not given)", "CD40L-induced NF-kB luciferase activity": "3.18 ± 1"}, {"smiles": "CC(=O)c1c(C)[nH]c(C(=O)OCc2ccccc2)c1C", "CD40L-induced NF-kB luciferase activity": "3.33 ± 3.2"}, {"smiles": "CC(=NNC(=O)c1ccccc1[N+](=O)[O-])c1ccc(Br)s1", "CD40L-induced NF-kB luciferase activity": "0.482 ± 5.1"}, {"smiles": "CN(C)CCOc1ccc(Cl)cc1C(C)(C)C", "CD40L-induced NF-kB luciferase activity": "6.623 ± 0.023"}, {"smiles": "CCN1C(=O)C(CC(=O)Nc2ccc(F)cc2)N(Cc2ccc3c(c2)OCO3)C1=S", "note": "(stereo not given)", "CD40L-induced NF-kB luciferase activity": "-5.89 ± 7.1"}, {"smiles": "COc1ccccc1/C=C/C(=O)c1c2c(c(C)[nH]c1=O)CCCC2", "CD40L-induced NF-kB luciferase activity": "-23.8 ± 4.3"}, {"smiles": "CC(=O)c1c(C)c(C)c2n1CCn1c(C)ccc1-2", "CD40L-induced NF-kB luciferase activity": "2.8 ± 7.2"}, {"smiles": "O=C(CCc1ccccc1)Nc1ccccc1C(F)(F)F", "CD40L-induced NF-kB luciferase activity": "10.8 ± 2.8"}, {"smiles": "O=C(OCC(O)C(O)COC(=O)c1ccccc1)c1ccccc1", "note": "(stereo not given)", "CD40L-induced NF-kB luciferase activity": "-7.26 ± 8.9"}, {"smiles": "CC(=O)N[C@@H](CS)C(=O)O", "CD40L-induced NF-kB luciferase activity": "-0.851 ± 1"}, {"smiles": "O=C(CNC(=O)OCc1ccccc1)NC1CCCCCC1", "CD40L-induced NF-kB luciferase activity": "-0.331 ± 0.99"}, {"smiles": "Cc1ccc(C2CC(c3cccs3)=NN2C(=O)c2ccco2)o1", "note": "(stereo not given)", "CD40L-induced NF-kB luciferase activity": "-7.33 ± 3.4"}, {"smiles": "COc1cc(CNc2ccc(C)c(C)c2)cc(OC)c1OC", "CD40L-induced NF-kB luciferase activity": "-2.76 ± 2.9"}, {"smiles": "COc1ccc(C(=O)O)cc1F", "CD40L-induced NF-kB luciferase activity": "-3.87 ± 2.9"}, {"smiles": "COc1cccc(OCc2cc(C3Nc4ccccc4C(=O)N3Cc3ccco3)ccc2OC)c1", "note": "(stereo not given)", "CD40L-induced NF-kB luciferase activity": "4.63 ± 1.6"}, {"smiles": "Cc1nc(C2CC(=O)OC23CCCCC3)cs1", "note": "(stereo not given)", "CD40L-induced NF-kB luciferase activity": "-4.38 ± 1.9"}, {"smiles": "CC[C@H](C)C(=O)O[C@H]1C[C@@H](C)C=C2C=C[C@H](C)[C@H](CC[C@@H]3C[C@@H](O)CC(=O)O3)[C@H]21", "CD40L-induced NF-kB luciferase activity": "5.85 ± 6.6"}, {"smiles": "O=C(CCCCC(=O)NC1CCCC1)NC1CCCC1", "CD40L-induced NF-kB luciferase activity": "1.99 ± 7.1"}, {"smiles": "CC1(C)CC(=O)C(C2(O)C(=O)Nc3ccccc32)CO1", "note": "(stereo not given)", "CD40L-induced NF-kB luciferase activity": "0.393 ± 0.46"}, {"smiles": "COc1c2c(nc3occc13)C(CC=C(C)C)(OC)C(O)CC2", "note": "(stereo not given)", "CD40L-induced NF-kB luciferase activity": "2.58 ± 7.2"}, {"smiles": "CC1(C)CC(CC(=O)O)(c2ccc(Cl)cc2)CCO1", "note": "(stereo not given)", "CD40L-induced NF-kB luciferase activity": "5.5 ± 0.88"}, {"smiles": "CCCCNc1cc(C(=O)O)cc(S(N)(=O)=O)c1Oc1ccccc1", "CD40L-induced NF-kB luciferase activity": "-3.37 ± 1.3"}, {"smiles": "Cc1cc(OC(C(=O)O)c2ccccc2)c2c(C)c(Cc3ccccc3)c(=O)oc2c1", "note": "(stereo not given)", "CD40L-induced NF-kB luciferase activity": "1.5 ± 0.14"}, {"smiles": "C[N+]12CCCCC1C(COC(=O)c1ccc3c(c1)OCO3)CCC2", "note": "(stereo not given)", "CD40L-induced NF-kB luciferase activity": "-2.37 ± 3.9"}, {"smiles": "CC(=O)N1CC2(C)CN(C(C)=O)CC(C)(C1)C2", "CD40L-induced NF-kB luciferase activity": "-4.1 ± 4"}, {"smiles": "O=c1ccn([C@@H]2O[C@H](CO)[C@@H](O)[C@H]2O)c(=O)[nH]1", "CD40L-induced NF-kB luciferase activity": "-6.55 ± 1.5"}, {"smiles": "CCCCCC(O)c1cccc(OCc2ccc3ccccc3n2)c1", "note": "(stereo not given)", "CD40L-induced NF-kB luciferase activity": "-8.19 ± 8.3"}, {"smiles": "COc1ccc(C2CC(c3ccc([N+](=O)[O-])cc3)=NN2C(=O)c2ccccc2)cc1OC", "note": "(stereo not given)", "CD40L-induced NF-kB luciferase activity": "-2.67 ± 1.9"}, {"smiles": "Cc1cc(O)c(C(C)C)cc1C1(c2cc(C(C)C)c(O)cc2C)OC(=O)c2ccccc21", "CD40L-induced NF-kB luciferase activity": "-36.1 ± 2.9"}]}]}
